Experimental data as given in patent US5807535A, “Metal complexes of hydroxyaryl containing aminocarboxylic acid chelating agents” (Australian Nuclear Science & Technology Organisation, priority 1992, dated 1998).
The source gives many values for each of these; only a part stands here.

Assay: Biodistribution of 67Ga complexes in mice
Type: in vivo, balb/c mice
Protocol: To ligand (50 μL, 10 mg/mL, 0.2 M NaOAc, […]) was added ^67 Ga citrate (18.5 MBq) and the resultant mixture diluted to 1 mL (0.2 M NaOAc, pH 7). The pH was adjusted to 12 with 1 M NaOH (20 μL) and heated at 40° C. for 40 min. The final volume was adjusted (to 5 mL) with saline and sterilised by filtering through a 0.22 μm filter.
Each animal was injected via tail vein with ^67 Ga complex (100 μL, ~3.7×10^5 Bq). Animals were sacrificed at various time intervals (5 animals per time point/6 time points). Data are illustrated in FIG. 26-30 and in Tables 13-17.
Each ^67 Ga-ligand complex has been evaluated in balb/c mice. […] (see FIG. 26-30).

- biodistribution bladder (1 min): 0.33 % ID
- biodistribution blood (1 min): 13.61 % ID
- biodistribution caecum (1 min): 0.27 % ID
- biodistribution colon (1 min): 0.49 % ID
- biodistribution duodenum (1 min): 0.08 % ID
- biodistribution heart (1 min): 0.29 % ID
- biodistribution ileum (1 min): 0.21 % ID
- biodistribution jejunum (1 min): 1.19 % ID
- biodistribution lungs (1 min): 0.78 % ID
- biodistribution pancreas (1 min): 0.25 % ID
- biodistribution salivary gl (1 min): 0.18 % ID
- biodistribution stomach GL (1 min): 0.20 % ID
- biodistribution stomach SQ (1 min): 0.08 % ID
- biodistribution testes (1 min): 0.17 % ID
- biodistribution bladder (3 min): 0.62 % ID
- biodistribution blood (3 min): 6.08 % ID
- biodistribution caecum (3 min): 0.20 % ID
- biodistribution colon (3 min): 0.28 % ID
- biodistribution duodenum (3 min): 0.43 % ID
- biodistribution heart (3 min): 0.13 % ID
- biodistribution ileum (3 min): 0.15 % ID
- biodistribution jejunum (3 min): 1.25 % ID
- biodistribution lungs (3 min): 0.64 % ID
- biodistribution pancreas (3 min): 0.11 % ID
- biodistribution salivary gl (3 min): 0.12 % ID
- biodistribution stomach GL (3 min): 0.22 % ID
- biodistribution stomach SQ (3 min): 0.07 % ID
- biodistribution testes (3 min): 0.17 % ID
- biodistribution bladder (5 min): 0.94 % ID
- biodistribution blood (5 min): 3.02 % ID
- biodistribution caecum (5 min): 0.13 % ID
- biodistribution colon (5 min): 0.18 % ID
- biodistribution duodenum (5 min): 0.41 % ID
- biodistribution heart (5 min): 0.09 % ID
- biodistribution ileum (5 min): 0.08 % ID
- biodistribution jejunum (5 min): 2.25 % ID
- biodistribution lungs (5 min): 0.25 % ID
- biodistribution pancreas (5 min): 0.06 % ID
- biodistribution salivary gl (5 min): 0.06 % ID
- biodistribution stomach GL (5 min): 0.20 % ID
- biodistribution stomach SQ (5 min): 0.04 % ID
- biodistribution tail (5 min): 0.73 % ID
- biodistribution testes (5 min): 0.12 % ID
- biodistribution bladder (10 min): 0.37 % ID
- biodistribution blood (10 min): 1.44 % ID
- biodistribution caecum (10 min): 0.17 % ID
- biodistribution colon (10 min): 0.27 % ID
- biodistribution duodenum (10 min): 1.75 % ID
- biodistribution heart (10 min): 0.04 % ID
- biodistribution ileum (10 min): 0.13 % ID
- biodistribution jejunum (10 min): 5.34 % ID
- biodistribution lungs (10 min): 0.17 % ID
- biodistribution pancreas (10 min): 0.12 % ID
- biodistribution salivary gl (10 min): 0.02 % ID
- biodistribution stomach GL (10 min): 1.61 % ID
- biodistribution stomach SQ (10 min): 0.32 % ID
- biodistribution tail (10 min): 0.84 % ID
- biodistribution testes (10 min): 0.07 % ID
- biodistribution bladder (30 min): 0.27 % ID
- biodistribution blood (30 min): 0.33 % ID
- biodistribution caecum (30 min): 0.15 % ID
- biodistribution colon (30 min): 0.27 % ID
- biodistribution duodenum (30 min): 0.27 % ID
- biodistribution heart (30 min): 0.01 % ID
- biodistribution ileum (30 min): 0.06 % ID
- biodistribution jejunum (30 min): 3.41 % ID
- biodistribution lungs (30 min): 0.19 % ID
- biodistribution pancreas (30 min): 0.08 % ID
- biodistribution salivary gl (30 min): 0.01 % ID
- biodistribution stomach GL (30 min): 0.35 % ID
- biodistribution stomach SQ (30 min): 0.03 % ID
- biodistribution tail (30 min): 0.55 % ID
- biodistribution testes (30 min): 0.07 % ID
- biodistribution bladder (120 min): 0.62 % ID
- biodistribution blood (120 min): 1.79 % ID
- biodistribution bone (120 min): 0.06 % ID
- biodistribution caecum (120 min): 1.70 % ID
- biodistribution colon (120 min): 0.72 % ID
- biodistribution duodenum (120 min): 0.02 % ID
- biodistribution heart (120 min): 0.00 % ID
- biodistribution ileum (120 min): 0.10 % ID
- biodistribution jejunum (120 min): 0.12 % ID
- biodistribution lungs (120 min): 0.01 % ID
- biodistribution pancreas (120 min): 0.00 % ID
- biodistribution salivary gl (120 min): 0.00 % ID
- biodistribution stomach GL (120 min): 0.01 % ID
- biodistribution stomach SQ (120 min): 0.01 % ID
- biodistribution tail (120 min): 0.10 % ID
- biodistribution testes (120 min): 0.02 % ID
Compound: Cc1cc(C)c(O)c(NC(=O)CN(CCN(CC(=O)O)CC(=O)Nc2cc(C)cc(C)c2O)CC(=O)O)c1 [Compound 6]
